This is one part of the list. Values were computed here from the reads of four pooled replicates and scatter widely.
biological target: T1, Pho4 (S. cerevisiae) (UniProt P07270); assay: relative binding free energy (BET-seq); higher = weaker binding; details: reference: library average
T1 sequence: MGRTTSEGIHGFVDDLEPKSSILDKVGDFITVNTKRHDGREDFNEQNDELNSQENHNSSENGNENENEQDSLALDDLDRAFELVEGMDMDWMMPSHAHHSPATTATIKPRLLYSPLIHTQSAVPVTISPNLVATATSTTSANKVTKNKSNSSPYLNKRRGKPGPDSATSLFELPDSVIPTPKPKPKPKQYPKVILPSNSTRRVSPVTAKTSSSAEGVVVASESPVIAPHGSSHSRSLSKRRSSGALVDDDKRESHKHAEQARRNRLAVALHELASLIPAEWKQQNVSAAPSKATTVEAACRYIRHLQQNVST

Row | Sequence | relative binding free energy
1 | AATATCACGTGGTTTA | 0.03 kcal/mol
2 | TCTATCACGTGCGGTA | 0.19 kcal/mol
3 | ATTGGCACGTGTTTGG | -0.02 kcal/mol
4 | GGCGACACGTGGCTGT | 0.05 kcal/mol
5 | GTGCTCACGTGTGGGA | 0.15 kcal/mol
6 | GGGTCCACGTGAGTTA | 0.17 kcal/mol
7 | GAAGTCACGTGTTGCG | 0.22 kcal/mol
8 | ATTGACACGTGGGCGA | -0.15 kcal/mol
9 | GGTAGCACGTGAGCGA | 0.31 kcal/mol
10 | ATGTTCACGTGCCTGG | 0.19 kcal/mol
11 | GATGTCACGTGTCTTG | 0.18 kcal/mol
12 | GAGGGCACGTGGTCAG | -0.2 kcal/mol
13 | TCAATCACGTGGGGGG | 0.06 kcal/mol
14 | CCGGGCACGTGGGTGG | -0.33 kcal/mol
15 | CTTGGCACGTGAGGAG | 0.16 kcal/mol
16 | ATGGGCACGTGTATCT | -0.09 kcal/mol
17 | TGTAACACGTGAAAGT | 0.29 kcal/mol
18 | CCGGGCACGTGTGTTA | -0.1 kcal/mol
19 | GTTAGCACGTGTTAGT | -0.04 kcal/mol
20 | TTTAGCACGTGGGGCG | -0.23 kcal/mol
21 | TGAGACACGTGTTGGA | -0.05 kcal/mol

Row | Sequence | relative binding free energy
22 | GTAGGCACGTGTGACG | -0.04 kcal/mol
23 | AGATTCACGTGTGTAA | 0.27 kcal/mol
24 | ATGATCACGTGGGACT | 0.07 kcal/mol
25 | GGTATCACGTGTTGGG | 0.15 kcal/mol
26 | TAATGCACGTGAAGAG | 0.34 kcal/mol
27 | AGTGACACGTGGTCAG | -0.02 kcal/mol
28 | TGTGCCACGTGGGGAC | -0.09 kcal/mol
29 | TCGATCACGTGTTTTA | 0.07 kcal/mol
30 | CAGTGCACGTGGAGGC | 0.03 kcal/mol
31 | GTTAGCACGTGCGATT | 0.02 kcal/mol
32 | AATGCCACGTGGAGGG | -0.12 kcal/mol
33 | ACTTGCACGTGTGTTA | 0.08 kcal/mol
34 | ACAAGCACGTGGTGGT | -0.06 kcal/mol
35 | CAGTACACGTGGTTGG | -0.06 kcal/mol
36 | ATACGCACGTGTATTG | -0.1 kcal/mol
37 | TTTGACACGTGGTTAG | -0.04 kcal/mol
38 | GCAAGCACGTGGGGAG | -0.16 kcal/mol
39 | TTAGGCACGTGACATT | -0.03 kcal/mol
40 | GTGCGCACGTGAGAGG | 0.3 kcal/mol
41 | GGACTCACGTGATGTG | 0.21 kcal/mol
42 | AGCTGCACGTGGCTGG | -0.01 kcal/mol

Row | Sequence | relative binding free energy
43 | GTTGTCACGTGAGTAT | 0.27 kcal/mol
44 | TGAGACACGTGAGGGA | 0.26 kcal/mol
45 | TATTTCACGTGTCGGG | 0.34 kcal/mol
46 | GTTAGCACGTGGTATT | -0.02 kcal/mol
47 | TTTGGCACGTGCCGTT | -0.21 kcal/mol
48 | GGGTTCACGTGTGACA | 0.4 kcal/mol
49 | ATTGACACGTGAAATG | 0.23 kcal/mol
50 | TAGGCCACGTGGTATT | -0.13 kcal/mol
51 | TTACTCACGTGGTGTT | 0.1 kcal/mol
52 | CAGTACACGTGGGTTT | -0.11 kcal/mol
53 | CAGGACACGTGGGTTG | -0.08 kcal/mol
54 | ATGGCCACGTGTAGGG | -0.01 kcal/mol
55 | TTCCGCACGTGGGGTT | -0.12 kcal/mol
56 | TTTTACACGTGAAGGC | 0.28 kcal/mol
57 | TTAATCACGTGGGTTC | -0.09 kcal/mol
58 | ATAGGCACGTGTATCG | -0.07 kcal/mol
59 | AATTGCACGTGAGTAT | 0.16 kcal/mol
60 | GTGGTCACGTGTGTGT | 0.1 kcal/mol
61 | TTAACCACGTGTAGGG | -0.11 kcal/mol
62 | AGAGGCACGTGCGGTA | -0.33 kcal/mol
63 | ACGGTCACGTGGAGTA | 0.04 kcal/mol

Reference: the BET-seq Pho4 binding data (Le et al. 2018)
